This is an account of results in PubChem BioAssay AID1159614 (National Center for Advancing Translational Sciences (NCATS), 2016).

Out of some 45,000 compounds screened, about 65 (0.1%) were called active. The call rests on the fitted dose curve; in most records, active means well fitted activation curve with a large enough effect; inconclusive means small, poorly fitted or top-dose-only effect; inactive means no such curve, though single readings can be large or run the other way. This is one part of the list.

Chain of UniProt P54803 (P54803 whole entry, looked up): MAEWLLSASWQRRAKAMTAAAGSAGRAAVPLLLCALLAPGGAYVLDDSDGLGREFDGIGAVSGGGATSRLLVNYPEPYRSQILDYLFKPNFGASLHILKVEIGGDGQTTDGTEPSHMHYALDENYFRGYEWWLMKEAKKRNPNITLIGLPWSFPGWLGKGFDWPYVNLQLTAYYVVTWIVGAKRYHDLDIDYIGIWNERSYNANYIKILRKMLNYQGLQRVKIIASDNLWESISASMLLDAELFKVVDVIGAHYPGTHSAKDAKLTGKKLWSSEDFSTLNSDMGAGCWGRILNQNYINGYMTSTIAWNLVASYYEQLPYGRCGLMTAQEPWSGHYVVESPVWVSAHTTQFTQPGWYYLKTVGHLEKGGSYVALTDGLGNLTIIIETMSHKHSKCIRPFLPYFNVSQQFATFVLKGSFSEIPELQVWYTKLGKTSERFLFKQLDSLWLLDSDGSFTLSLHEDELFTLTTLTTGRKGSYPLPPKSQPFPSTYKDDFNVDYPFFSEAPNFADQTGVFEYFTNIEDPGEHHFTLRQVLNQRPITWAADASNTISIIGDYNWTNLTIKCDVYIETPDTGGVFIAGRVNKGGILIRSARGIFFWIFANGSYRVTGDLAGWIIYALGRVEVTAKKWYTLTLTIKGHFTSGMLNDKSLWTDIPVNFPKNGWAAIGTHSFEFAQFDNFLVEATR

In this assay the target is Galactocerebrosidase (Homo sapiens) (UniProt P54803). As to the kind of experiment: A Novel Cell-Based Assay to Identify Small Molecules for B -Galactocerebrosidase. Further: 0% is about no effect; nearly all actives have a fitted effect of over 65% in size. To be noted: 145M-Twi-hGALC-G270D cells (Twitcher mouse brain line with human GALC G270D), HMU-beta-Gal fluorescence, 48 h; series mostly up to 57.5 µM; activation: at the top concentration. The procedure, abridged:
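Fluorogenic HMU-b-Gal hydrolysis (0.1 mM final, pH 5.2 citrate-phosphate with 1 mg/mL sodium taurocholate; carbonate stop buffer) measures mutant GALC activity after compound treatment of live 145M-Twi Twitcher brain cells stably carrying human GALC-G270D, with wild-type GALC line alongside; activation sought.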
Regarding `C#CCn1c(C2CC(=O)N(c3ccc(OC)cc3)C2)nc2ccccc21` (stereo not given), the “activation” value was inactive: -29.6%.
In the case of `CN1CCN(C2(CNC(=O)c3ccc(C(C)(C)C)cc3)CCCCC2)CC1` it was inactive: -9.12%.
The same measure for `Cc1cc2nnc(SCc3ccc(F)cc3)n2c2ccccc12`: inactive: -40.3%; for `CC(C)CCn1c(=O)c2cccnc2n(CC(=O)Nc2ccc(F)cc2)c1=O`: inactive: -16.2%; for `Cc1ccc(CNC(=O)c2sc3nc[nH]c(=O)c3c2C)cc1`: inactive: -9.64%.
In the case of `COc1ccc2occ(CC(=O)Nc3ccc(S(=O)(=O)Nc4nccc(C)n4)cc3)c2c1` it was inactive: -21.8%; in that of `CC1CN(c2ccc(Cl)cc2)c2nc3c(c(=O)n(CC(=O)O)c(=O)n3C)n2C1` (stereo not given), inactive: -14.3%; in that of `COc1ccc(-c2[nH]c(-c3cccc(OC)c3)nc2SCC(=O)Nc2ccc3c(c2)OCO3)cc1`, inactive: -11.8%.
`COc1ccccc1-c1nc(SCC(=O)c2ccccc2)n[nH]1`: the “activation” value is inactive: -12.2%.
In the case of `COc1cccc(C(=O)NCc2ccc3c(c2)CCN3C(=O)c2ccncc2)c1` it was inactive: -6.3%; in that of `COc1ccc(-n2c3c(c(=O)[nH]c2=O)C(NC(=O)c2ccccc2Cl)(C(F)(F)F)C(=O)N3)cc1` (stereo not given), inactive: -8.53%; in that of `COc1cccc(CNC(=O)Cn2c(=O)ccc3cc(S(=O)(=O)N4CCC(C)CC4)ccc32)c1`, inactive: -13.4%.
As for `Cc1ccc(NC(=O)c2cc(S(=O)(=O)N(C)C3CCCCC3)ccc2F)cc1C`, the “activation” value is inactive: -7.46%.
In the case of `COc1ccc(NC(=O)c2ccc(-c3nc(CSc4ccc(C)cc4)c(C)o3)cc2)cc1Cl` it was inactive: -8.88%; in that of `CCN(c1cccc(C)c1)S(=O)(=O)c1ccc(N2CCCCS2(=O)=O)cc1`, inactive: -2%; in that of `O=C(Nc1ccc(C(=O)N2CCN(c3cccc(Cl)c3)CC2)cc1)c1nsc2ccccc12`, inactive: -9.18%.
With `CCCCCN1C(C(=O)c2ccccc2)=C(NC(=O)c2ccc(OC)cc2)c2ccccc2S1(=O)=O`, the “activation” value was inactive: -9.12%.
With `COc1ccc(CNc2nc(SCc3ccc(Cl)cc3)nc3ccccc23)cc1`, the “activation” value was inactive: -1.35%.
In the case of `Cc1cc(C)c(NC(=O)C(C)n2c(=O)c(C(F)(F)F)nc3ccccc32)c(C)c1` (stereo not given) it was inactive: -14.9%.
For the compound `CCC(=O)N1CCc2cc(S(=O)(=O)NC(C(=O)NCCc3ccccc3)C(C)C)ccc21` (stereo not given), the “activation” value was inactive: -20.6%.
Consider `CCc1nnc(NC(=O)c2nc(S(=O)(=O)Cc3ccc(C)cc3)ncc2Cl)s1`, for which the “activation” value was inactive: -10.9%.
The same measure for `Cc1cc(C)cc(OCC(=O)Nc2nc3c(s2)CC(C(C)(C)C)CC3)c1` (stereo not given): inactive: -3.09%.
Turning to `CCOC(=O)CC(NC(=O)CCc1c(C)nc2c(c(C)nn2-c2ccc(C)c(C)c2)c1C)c1ccc(C)cc1` (stereo not given), the “activation” value is inactive: -19.3%.
The same measure for `COc1ccc(OC)c2sc(NC(=O)c3ccc(S(=O)(=O)N4CCCC4)cc3)nc12`: inactive: -9.15%; for `Cc1cccc(-n2ncc(C(=O)N3CCN(C4CCCCC4)CC3)c2C2CCN(C(=O)OC(C)(C)C)CC2)c1`: inactive: -10.1%.
For the compound `CCN(CC)CCNC(=O)c1c(C)oc2ncn(C)c(=O)c12`, the “activation” value is inactive: -9.52%.
`Cc1oc2ccc(O)c(CN(C)Cc3ccccc3)c2c1C(=O)Nc1ccccc1`: the “activation” value is inactive: -8.66%.
In the case of `O=C(CCc1cn(Cc2ccc(F)cc2)c2ccccc12)NCCc1ccc(Cl)cc1` it was inactive: -10.7%; in that of `CC(=O)N1CCOc2cc(S(=O)(=O)NC(C)c3ccccc3)c(Cl)cc21` (stereo not given), inactive: 4.04%; in that of `Cc1cccc(C(=O)Nc2sc3c(c2C(=O)N2CCCCC2)CCC(C)C3)c1` (stereo not given), inactive: -16.2%.
`COc1cccc(NC(=O)CSc2nc3ccc(NC(=O)c4cccs4)cc3s2)c1`: the “activation” value is inactive: -0.45%.
In the case of `Cc1ccc(C(=O)CC2(O)C(=O)N(Cc3ccccc3F)c3ccccc32)cc1` (stereo not given) it was inactive: -12.4%.
`Cc1ncc([N+](=O)[O-])n1CCO`: the “activation” value is inactive: -3.08%.
For the compound `CCOC(=O)c1c(NC(=O)/C=C/c2ccc(C(C)C)cc2)sc2c1CCC2`, the “activation” value is inactive: -8.04%.
The same measure for `Cc1ccc(NC(=O)Nc2nnc(N3CCCC3)s2)cc1`: inactive: -11.2%; for `Cn1cnc(S(=O)(=O)N2CCC(C(=O)NCc3ccccc3Cl)CC2)c1`: inactive: -12.7%; for `CCN(c1ccccc1)c1nnc(NC(=O)Nc2ccc(Br)cc2)s1`: inactive: -10.3%.
On to `C[C@@]12C(=O)OC(=O)[C@]1(C)C1CCC2O1`, for which the “activation” value was inactive: -8.7%.
In the case of `CCOc1ccc(CCNc2ncnc3onc(-c4ccc(Cl)cc4)c23)cc1OCC` it was inactive: 6.39%.
As to `CCc1ccc(OC(C)c2nc(-c3ccc(-n4cccc4)cc3)no2)cc1` (stereo not given), the “activation” value is inactive: -29.1%.
In the case of `CNS(=O)(=O)c1cn(CC(=O)N2CCN(c3ccccc3F)CC2)cc1S(=O)(=O)NC` it was inactive: 2.61%.
The same measure for `COC(=O)Nc1nc2ccc(C(=O)C3CC3)cc2[nH]1`: inactive: -12.8%; for `Cc1ccc(CN(Cc2ccco2)C(=O)COc2ccccc2C)cc1`: inactive: -6.81%; for `CCOC(=O)c1ccc(NC(=O)CCc2c(C)nc3c(c(C)nn3-c3ccccc3)c2C)cc1`: inactive: -19.4%.
For the compound `COc1cccc(C2=C(C(C)=O)Sc3nncn3N2C(C)=O)c1`, the “activation” value was inactive: -18.2%.
The same measure for `OC(CCN1CCCCC1)(c1ccccc1)C1CC2C=CC1C2` (stereo not given): inactive: -9.76%.
The same measure for `COc1ccc(NC(=O)C(c2ccc(C)cc2)N(C)C(=O)/C=C\c2ccc3c(c2)OCO3)cc1` (stereo not given): inactive: -10.4%; for `O=S(=O)(NCc1csc(-c2ccccc2)n1)c1cccc(F)c1`: inactive: -8.56%; for `CC(=O)c1ccc(NC(=O)CCc2c(C)nc3c(c(C)nn3-c3ccc(C)cc3)c2C)cc1`: inactive: -11.5%.
For `COc1ccccc1NC(c1ccc(Cl)cc1)c1nnc(-c2cccc(F)c2)o1` (stereo not given), the “activation” value is inactive: -10.1%.
In the case of `O=C(Cn1c(SCc2cccc(F)c2)nc2cccnc21)Nc1ccc(F)c(Cl)c1` it was inactive: -5.28%; in that of `O=C(COc1ccccc1Cl)Nc1cc(-c2ccccc2F)nn1-c1ccccc1`, inactive: -3.88%; in that of `CC(C)(C)c1ccc(Cn2c(Cc3ccccc3)nc3ccccc32)cc1`, inactive: -20.1%.
In the case of `Cc1nn2c(=O)cc(CN(C)c3ccccc3)nc2s1`, the “activation” value was inactive: -7.6%.
On to `CCOc1ccc(-c2nonc2NC(=O)c2oc3ccc(F)cc3c2C)cc1`, for which the “activation” value is inactive: -6.27%.
For the compound `COc1ccc(C2c3c(oc4ccccc4c3=O)C(=O)N2Cc2ccc3c(c2)OCO3)cc1` (stereo not given), the “activation” value is inactive: -14.5%.
`COC(=O)c1ccccc1NC(=O)C1=CC(c2ccc(C)cc2)=NS(=O)(=O)N1C`: the “activation” value was inactive: -6.71%.
The same measure for `O=C(CCS(=O)(=O)c1nc(-c2cccs2)cc(C(F)(F)F)n1)Nc1ccc(OC(F)(F)F)cc1`: inactive: 3.59%.
On to `Cc1cc(C)cc(NC(=O)CN(c2cc(C(F)(F)F)ccc2Cl)S(=O)(=O)c2ccccc2)c1`, for which the “activation” value is inactive: -3.8%.
Consider `COc1cccc(-c2nn(C)c3sc(C(=O)NCc4cc(OC)ccc4OC)cc23)c1`, for which the “activation” value was inactive: -18.6%.
On to `O=C(CN1CCN(Cc2ccc(F)cc2)C1=O)NCc1ccccc1Cl`, for which the “activation” value was inactive: -5.19%.
Turning to `CCN(CC)CCSC(=O)C(c1ccccc1)c1ccccc1`, the “activation” value is inactive: -11.7%.
Take `COc1ccc(OC)c(NC(=O)c2cc3c(n(-c4ccc(Cl)cc4)c2=O)CC(C)(C)CC3=O)c1`: the “activation” value was inactive: -13.6%.
As to `Cc1nn2c(-c3cccc(NC(=O)c4ccccc4)c3)nnc2c2ccccc12`, the “activation” value is inactive: -20.5%.
Consider `COc1ccc(CNC(=O)c2ccc(N3CCCC3)c(NC(=O)NCc3ccc(C)cc3)c2)cc1`, for which the “activation” value is inactive: -19.8%.
Consider `CC(C)c1ccc(OCC(=O)NC(Cc2c[nH]c3ccccc23)C(=O)O)cc1` (stereo not given), for which the “activation” value was inactive: -14.9%.
As for `CCOC(=O)c1c(C)oc2ccc(N(C(=O)Oc3ccccc3)S(=O)(=O)c3ccc(CC)cc3)cc12`, the “activation” value is inactive: -42.9%.
The same measure for `COc1ccc(CCNC(=O)c2ccc3c(c2)N(Cc2c(F)cccc2Cl)C(=O)CS3)cc1OC`: inactive: -7.69%; for `Cc1cccc(OC(=O)CSc2nnc(CNC(=O)c3ccccc3)o2)c1C`: inactive: -7.56%.
The same measure for `O=C(Nc1ccc(F)cc1)c1oc2ccccc2c1NC(=O)C12CC3CC(CC(C3)C1)C2`: inactive: -3.02%; for `O=C(Nc1cc(Cl)cc(Cl)c1)c1ccc(F)c(S(=O)(=O)N2CCc3ccccc32)c1`: inactive: -46.8%; for `O=C(Cc1ccccc1)N(Cc1cccnc1)c1nc2c(F)cc(F)cc2s1`: inactive: -34.9%.
In the case of `COc1ccc(-c2cn3c(n2)sc2cc(C(=O)Nc4ccc(C)c(C)c4)ccc23)cc1` it was inactive: -14.2%; in that of `COc1ccc(-c2cc(C)no2)cc1S(=O)(=O)N1CCOc2ccccc21`, inactive: -5.45%; in that of `Cc1cccc(N2CCN(C(=O)CCc3nnc4n(CC(C)C)c(=O)c5ccccc5n34)CC2)c1C`, inactive: -17.7%.
Turning to `Cc1ccc(-n2c(SCc3cccc(F)c3)nc3[nH]ncc3c2=O)cc1C`, the “activation” value is inactive: -11.7%.
The same measure for `COc1cc(OC)c(OC)cc1/C=C/c1nc2cc3ccccc3cc2c(=O)n1-c1ccc(F)cc1F`: inactive: -20.9%.
On to `Cc1ccc2c(c1)-c1cc(C)nn1C(c1cc(Br)ccc1O)N2` (stereo not given), for which the “activation” value is inactive: -12.7%.
The same measure for `COc1ccc(C2CC(=O)c3cc(-c4nc(-c5ccc(Cl)cc5)c(C)s4)c(=O)[nH]c3C2)cc1` (stereo not given): inactive: -13.4%; for `COc1ccc(NC(=O)C(C)n2nc(-c3ccc(C)c(C)c3)ccc2=O)cc1OC` (stereo not given): inactive: -15.1%; for `CCc1nnc(SCc2cc(C)ccc2C)c2cc3sc(C)cc3n12`: inactive: 3.7%.
The same measure for `COc1cccc(NC(=O)CSC2=Nc3ccccc3C3=NC(CC(=O)NC4CCCCC4)C(=O)N23)c1` (stereo not given): inactive: -8.87%; for `CCOC(=O)c1c(C)[nH]c(C)c1S(=O)(=O)N1CCC(C(=O)N2CCN(c3ccccc3F)CC2)CC1`: inactive: -16.7%.
Turning to `CCc1ccc(CNC(=O)c2ccc(NC(=O)N3CC(C)Sc4ccccc43)cc2)cc1` (stereo not given), the “activation” value was inactive: -5.24%.
In the case of `Cc1cc(C)c2c(=O)cc(C(=O)Nc3ccccc3C(F)(F)F)oc2c1` it was inactive: -17.3%; in that of `CC(=O)c1ccc(N2CCN(c3ccc(NC(=O)c4ccc(F)cc4)cc3C(=O)O)CC2)cc1`, inactive: -11.4%; in that of `CC(C)(C)c1ccc(C(=O)NCC(c2cccs2)S(=O)(=O)c2ccccc2)cc1` (stereo not given), inactive: 0.248%.
On to `Cc1cc(NC(=O)CCS(=O)(=O)c2cc3c4c(c2)CCN4C(=O)CC3)ccc1Br`, for which the “activation” value is inactive: -15.2%.
The same measure for `O=S(=O)(Nc1nc2n(n1)C(c1ccc(F)cc1)C=C(c1ccccc1)N2)c1ccccc1` (stereo not given): inactive: -11%; for `Cc1ccc2ncc(C(=O)Nc3ccc(F)cc3F)c(=O)n2c1`: inactive: -6.69%.
On to `COC(=O)c1ccc2c(=O)n(CCCCCC(=O)NCc3ccc(Cl)cc3)c(=O)[nH]c2c1`, for which the “activation” value was inactive: -37.4%.
The same measure for `O=C(CCS(=O)(=O)c1cc(Br)cc2c1N(C(=O)C1CC1)CC2)NCc1ccc(Cl)cc1`: inactive: -9.32%; for `Cc1ccc(CSc2cn(CC(=O)N3CCCC3)c3ccccc23)cc1`: inactive: -12.7%.
The same measure for `CCn1c(=O)sc2cc(NS(=O)(=O)c3ccc(F)c(C)c3)ccc21`: inactive: -24.1%; for `CN(C(=O)c1cc2nc(-c3ccco3)cc(C(F)(F)F)n2n1)c1ccc(OC(F)(F)Cl)cc1`: inactive: 3.64%.
